# PubChem BioAssay AID1631 (National Center for Advancing Translational Sciences (NCATS), 2009)
# The whole screen tested about 260,000 compounds, of which about 890 (0.34%) were called active. Inconclusive means that the source gave no clear call. Such entries were picked first, then a sample of the others. Calls come from the whole dose curve; as a rule, active = well fitted activation curve with a large enough effect; inconclusive = small, poorly fitted or top-dose-only effect; inactive = no such curve, though single readings can be large or run the other way. No potency is given beside an inconclusive call; the fits are too rough.
# Target: Pyruvate kinase PKM (Homo sapiens) (UniProt P14618)
# Assay: qHTS Assay for Activators of Human Muscle isoform 2 Pyruvate Kinase; note: nearly all actives have a fitted effect of over 55% in size
# Conditions: purified PKM2, Kinase-Glo ATP luminescence; Potency: activation; activation: at 57.5 µM (top of the series), 0% is enzyme alone, no compound
# In short: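 ATP formation by purified human PK-M2, quantified via coupled luciferase luminescence after 1 h at room temperature with 0.1 mM ADP and 0.5 mM PEP final.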
# % is set by controls: 0 for no effect and ±100 for the full control effect; potency is the fitted concentration of half-maximal effect; tags give direction and shape of the fitted curve.
# Sequence of UniProt P14618 (P14618 whole entry, looked up, canonical isoform): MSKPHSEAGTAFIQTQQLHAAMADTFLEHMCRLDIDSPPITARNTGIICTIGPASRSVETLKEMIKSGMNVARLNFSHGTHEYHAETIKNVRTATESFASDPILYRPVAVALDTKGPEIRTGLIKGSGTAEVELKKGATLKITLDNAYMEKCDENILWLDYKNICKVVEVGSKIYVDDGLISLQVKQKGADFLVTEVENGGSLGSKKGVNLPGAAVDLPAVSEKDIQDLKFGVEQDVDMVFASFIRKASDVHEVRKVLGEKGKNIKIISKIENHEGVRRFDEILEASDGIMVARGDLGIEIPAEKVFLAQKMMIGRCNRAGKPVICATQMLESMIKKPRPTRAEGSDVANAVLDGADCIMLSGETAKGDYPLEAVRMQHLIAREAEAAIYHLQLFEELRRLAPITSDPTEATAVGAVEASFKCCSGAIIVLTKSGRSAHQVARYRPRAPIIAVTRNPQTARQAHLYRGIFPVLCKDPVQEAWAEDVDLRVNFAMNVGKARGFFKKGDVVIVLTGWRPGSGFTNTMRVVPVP
Compound,Potency,activation
FC(F)(F)c1ccc(/C=N/NC(=S)NC2CCCCC2)cc1,inactive,–
COc1cc2[nH]c(=O)n(CCC(=O)NCCC(C)C)c(=O)c2cc1OC,inactive,–
Cc1cccc(NC(=S)NC2CCCC2)c1,inactive,–
CN(C)c1ccc(/C=N/NC(=O)C2COc3ccccc3O2)o1 (stereo not drawn),"inconclusive [rising, partial curve]",–
COc1ccc(Cl)cc1NC(=O)CN1CCC(NC(=O)C2CC2)CC1,inactive,–
Nc1cc2c(cc1O)CCCC2,"inconclusive [rising, full curve]",–
C=CCN=C1SC(C)C(=O)N1S(=O)(=O)c1ccccc1 (stereo not drawn),"inconclusive [rising, full curve, poor fit]",–
CCCCOP(=O)(OCCCC)C1(NS(=O)(=O)c2ccccc2)C=CC(=O)c2ccccc21 (stereo not drawn),"inconclusive [rising, single point]",–
COc1ccc(CN=C2NN=C(c3ccccc3)CS2)cc1,"inconclusive [rising, partial curve]",–
CC(C)CC(=O)N1CCN(S(=O)(=O)c2ccc3ccccc3c2)CC1,"inconclusive [rising, partial curve]",–
COc1ccc(SC[C@H](Cc2ccccc2)N2CCN(CCc3ccccc3)CCC2=O)cc1,"inconclusive [rising, single point]",–
CCOC(=O)Cc1csc(SCC(=O)N2CCN(c3ccc(OC)cc3)CC2)n1,"inconclusive [rising, single point]",–
COc1ccccc1NS(=O)(=O)c1cccc(NC(=O)c2[nH]c(C)c(C(C)=O)c2C)c1,active: 12.6 µM,–
O=C(NCc1ccc2c(c1)OCO2)c1ccc2c(c1)C(=O)N(Cc1cccnc1)C2=O,"inconclusive [rising, partial curve]",–
COc1cc(C(=O)N2CCNCC2)cc(OC)c1OC,"inconclusive [rising, partial curve, poor fit]",–
O=C(/C=C/c1ccc(O)c(O)c1)O[C@H](Cc1ccc(O)c(O)c1)C(=O)O,"inconclusive [rising, full curve, poor fit]",–
CC(C)=CC(=O)Nc1ccc(Cl)cc1,inactive,–
CCCC(C)c1nnc(NC(=O)CN2C(=O)c3ccccc3C2=O)s1 (stereo not drawn),inactive,–
Cn1cc(/C=C2\SC(=S)N(NC(=O)c3ccccc3)C2=O)c2ccccc21,inactive,–
CCOC(=O)C1=C(N)N(c2ccc(N3CCCCC3)cc2)C(=O)C1,"inconclusive [rising, partial curve]",–
O=C(Nc1ccccc1C(=O)NC1CCCC1)NC1CCCC1,"inconclusive [rising, single point]",–
Cc1cccc(N2C(=O)/C(=C\c3ccc(C(=O)O)cc3)c3ccccc3C2=O)c1,"inconclusive [rising, single point]",–
Cc1c(O)ccc2c(=O)c(-c3nncn3-c3ccccc3)coc12,"inconclusive [rising, partial curve]",–
COC(=O)C1C(=O)C2=C(CC1C)NC(C)=C(C(=O)OCc1ccc(OC)cc1)C2c1ccc(C)o1 (stereo not drawn),inactive,–
COCCNC(=O)c1cccc(Nc2nc(-c3ccccc3)c3cc(Cl)ccc3n2)c1,inactive,–

Compound,Potency,activation
COc1ccccc1N1CCN(CC(=O)NCC2CCCO2)CC1 (stereo not drawn),inactive,–
NS(=O)(=O)c1ccc(CCNS(=O)(=O)c2cccs2)cc1,"inconclusive [rising, partial curve]",–
Cc1ccc(OCCn2cncn2)c([N+](=O)[O-])c1,"inconclusive [rising, partial curve, poor fit]",–
COc1cc(C(=O)N=c2sc3c(C)ccc(OC)c3n2C)cc(OC)c1OC,inactive,–
O=C(Oc1cccc([N+](=O)[O-])c1)N1CCCCC1,inactive,–
CC(C)(C)c1csc(Sc2ccc([N+](=O)[O-])cn2)n1,"inconclusive [rising, single point]",–
Cc1nnc(SCC(=O)N2CCC(C(N)=O)CC2)s1,"inconclusive [rising, single point]",–
CCCCN1C(=O)/C(=C(/C#N)C(=O)N2CCCC2)c2ccccc21,"inconclusive [rising, partial curve]",–
O=S(=O)(c1ccc(N2CCN(S(=O)(=O)c3ccc4c(c3)OCCO4)CC2)nc1)N1CCCC1,"inconclusive [rising, partial curve, poor fit]",–
Cc1ccc(CNC(=O)C2c3ccccc3C(=O)N3CCc4ccccc4C23)o1 (stereo not drawn),active: 10 µM,–
COc1cccc(NC(=O)CSc2ccc(-c3ccco3)nn2)c1,active: 3.16 µM,–
O=C1c2ccccc2C(=O)N1CSc1nnnn1-c1ccccc1,"inconclusive [rising, partial curve]",–
c1ccc2oc(NC3=NCN(CC4CCCO4)CN3)nc2c1 (stereo not drawn),"inconclusive [rising, single point]",–
O=[N+]([O-])c1ccccc1Nc1ccc(O)cc1,"inconclusive [rising, single point]",–
Cc1ccc2oc(C(=O)Nc3ccc(S(=O)(=O)Nc4onc(C)c4C)cc3)c(C)c2c1,inactive,–
COc1ccc(CCN2C(=NC(=O)C(C)C)SC3CS(=O)(=O)CC32)cc1 (stereo not drawn),inactive,–
Cc1cc(C)n(Cc2ccc(C(=O)N/N=C/c3ccc(-c4ccc([N+](=O)[O-])cc4)o3)o2)n1,inactive,–
O=C(Cc1ccc(Nc2nc(=S)[nH]c3ccccc23)cc1)NC1CCCCC1,inactive,–
O=S(=O)(Nc1ccccc1)c1ccc(-c2csnn2)cc1,active: 14.1 µM,–
C#CCn1c(=NC(=O)CN2C(=O)CCC2=O)sc2cc(S(N)(=O)=O)ccc21,"inconclusive [rising, partial curve]",–
Cc1cccc(CSc2ccc3nnc(-c4ccccn4)n3n2)c1,"inconclusive [rising, single point]",–
Cc1ccc(/C=N\NC(=O)C2COc3cc4ccccc4cc3O2)o1 (stereo not drawn),"inconclusive [rising, full curve]",–
CS(=O)(=O)N(CC(=O)Nc1ccc(S(=O)(=O)N2CCOCC2)cc1)c1ccccc1Br,"inconclusive [rising, single point]",–
CC(NC(=O)/C(C#N)=C/c1ccc([N+](=O)[O-])o1)c1ccccc1 (stereo not drawn),"inconclusive [rising, partial curve]",–
Cn1c(NCc2ccco2)nc2c1c(=O)n(Cc1ccc(Cl)c(Cl)c1)c(=O)n2C,"inconclusive [rising, partial curve]",–

Compound,Potency,activation
COc1ccc(C(=O)N2CCN(c3ccc([N+](=O)[O-])c(-n4nc(C)cc4C)c3)CC2)cc1,"inconclusive [rising, single point]",–
COc1ccc2oc(=N)c(C(=O)Nc3cccc(C)c3C)cc2c1,inactive,–
CCCN1CNC(=S)N(c2ccccc2OCC)C1,"inconclusive [rising, full curve]",–
Cc1cc(/C=C(/C#N)c2nc3ccccc3[nH]2)c(C)n1-c1cc(C(=O)O)cc(C(=O)O)c1,inactive,–
CCN1C(=O)C(CC(=O)Nc2ccc(OC)cc2)N(Cc2cccs2)C1=S (stereo not drawn),"inconclusive [rising, partial curve]",–
COc1cc(C#Cc2c(-c3ccccc3)n(C)c3ccccc23)cc(OC)c1,inactive,–
CC(C)(C)OC(=O)NCCCCCc1nnc(SCC(=O)Nc2cccc(Cl)c2)o1,active: 25.1 µM,–
Cc1ccc(C(=O)N2CCN(C(=O)c3ccc(C)cc3)C2)cc1,"inconclusive [rising, single point]",–
CN(CCOC(=O)/C=C/c1ccco1)Cc1ccccc1,"inconclusive [rising, single point]",–
O=C1C=CC(=O)N1c1cccc(-c2ccccc2)c1,active: 3.16 µM,–
CCOC(=O)c1nn(C23CC4CC(CC(C4)C2)C3)c2c1C(=O)N(c1ccc(C)cc1)C2=O,inactive,–
Nc1ccccc1C(=O)N1CCc2ccccc21,–,"inactive: -0.287% [at 11.5 µM, 0% is enzyme alone, no compound]"
CSc1ccc(/C=N\NC(=O)COc2ccc(Cl)cc2Br)cc1,"inconclusive [rising, full curve, poor fit]",–
O=c1c2sccc2nc(SCc2cc(=O)n3cc(Cl)ccc3n2)n1Cc1ccccn1,"inconclusive [rising, partial curve]",–
O=C1CC(c2ccco2)CC2=C1C1c3ccccc3C(=O)N1c1ccccc1N2 (stereo not drawn),"inconclusive [rising, single point]",–
Cc1nonc1CC(=O)N1CCCC(C(=O)c2ccc(Cl)cc2)C1 (stereo not drawn),"inconclusive [rising, single point]",–
Cc1nn(CCC(=O)N2CCN(S(=O)(=O)c3ccc(Cl)cc3)CC2)c(C)c1C,active: 22.4 µM,–
CS(=O)(=O)N(CC(=O)N/N=C/c1cc2c(cc1Br)OCO2)c1ccccc1Br,"inconclusive [rising, partial curve]",–
Cc1ccc(/C=N/NC(=O)c2ccc(C(=O)N/N=C/c3ccc(C)s3)o2)s1,"inconclusive [rising, single point]",–
Clc1cccc(-c2noc3ncnc(Nc4ccc5c(c4)OCO5)c23)c1,"inconclusive [rising, single point]",–
COc1ccc(S(=O)(=O)c2ccc(O)cc2)cc1,active: 4.47 µM,–
COc1ccccc1N1CC(O)=C(c2nc3ccccc3c(=O)[nH]2)C1=N,inactive,–
O=C1CN(C(=O)COC(=O)c2ccc(N3CCCCCC3)c([N+](=O)[O-])c2)c2ccccc2N1,"inconclusive [rising, single point]",–
